# Article PMC7819943, “Rice protein-binding microarrays: a tool to detect cis-acting elements near promoter regions in rice”
# The other results are listed elsewhere or left out.
# Target: T1, OsWOX13 (Oryza sativa, UniProt Q5QMM3 1-267)
# T1 sequence: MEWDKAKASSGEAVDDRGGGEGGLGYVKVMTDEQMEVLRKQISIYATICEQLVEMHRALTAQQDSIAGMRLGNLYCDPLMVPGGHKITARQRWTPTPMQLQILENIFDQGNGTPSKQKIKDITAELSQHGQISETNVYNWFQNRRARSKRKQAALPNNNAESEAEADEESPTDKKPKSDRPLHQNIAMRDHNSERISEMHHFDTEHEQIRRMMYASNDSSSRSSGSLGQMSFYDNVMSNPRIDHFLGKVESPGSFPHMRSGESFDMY
# Assay: protein-binding microarray (RPBM); PBS, 2% BSA, 51.3 ng/ul salmon testes DNA, 50 uM zinc acetate, 200 nM TF, 25 C, 1 h; high values mean tight binding
# Conditions: protein: recombinant; tags: N-terminal polyhistidine and DsRed monomer fusion (pET32a); label: CyDye5-dUTP incorporated in the synthesized complementary strand; 3' TTTTT single-stranded linker to array surface; dsDNA, one strand shown
# Method in brief: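 The binding signal is fluorescence intensity per array feature (arbitrary units). Readings came from an Axon 4000B scanner after a washed, 2% BSA-blocked, double-stranded custom Agilent array had been incubated for 1 h at 25 °C with 200 nM protein and 50 µM zinc acetate. The protein was a Ni–NTA-purified transcription factor fused N-terminally to polyhistidine and DsRed, expressed in E. coli BL21-CodonPlus.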
row,Sequence,binding signal
1,GCAATCAGATCGTAGATTAGATAAATAATTTACGAGAAAACGGAGTCACCTAGTGCAG,9530 fluorescence intensity (a.u.)
2,CCCTCATTTATTGACTGCTACTAGTAGTACCACTATAGAACGGAGTCACCTAGTGCAG,7970 fluorescence intensity (a.u.)
3,TTAATTAATTGCAAATTGGAGTGCATGACCAGATGCTAATCGGAGTCACCTAGTGCAG,29700 fluorescence intensity (a.u.)
4,ACAAATTAATTAGGCTAAATAAATTCGTCTCGTGGTTTACCGGAGTCACCTAGTGCAG,49700 fluorescence intensity (a.u.)
5,ATCCACTCAATTACACCCTCTTCCAACATGATTTAGACCGCGGAGTCACCTAGTGCAG,6510 fluorescence intensity (a.u.)
6,GTTATAATATAATTACACTTTAATTATGCTATAATTACATCGGAGTCACCTAGTGCAG,6560 fluorescence intensity (a.u.)
7,GATTAATGCCAGTTATTATTTTAAACGAATCTCGTTGATCCGGAGTCACCTAGTGCAG,5800 fluorescence intensity (a.u.)
8,TTGCAAAATTTAAAATTATGTTGTCATTGTAATATATTTTCGGAGTCACCTAGTGCAG,3860 fluorescence intensity (a.u.)
9,ATTTCTTAATTTAATGCTATTCTGACTCCTTGCACCTCTACGGAGTCACCTAGTGCAG,12300 fluorescence intensity (a.u.)
10,TAGTACTACTCATCACCAATCAGCTGCCACACATGCATGGCGGAGTCACCTAGTGCAG,5430 fluorescence intensity (a.u.)
11,ATTTTCGGTTTATTTTAATTAAAACTTAATTAATCATACGCGGAGTCACCTAGTGCAG,19300 fluorescence intensity (a.u.)
12,TACTAAACTTTAGGTGTAAATTAGCACTTGGCAAACTGGTCGGAGTCACCTAGTGCAG,4250 fluorescence intensity (a.u.)
13,GAAACAAACATAAAATGGTGTAAATTACCTGGAATTTGTGCGGAGTCACCTAGTGCAG,3500 fluorescence intensity (a.u.)
14,CCGGCAAATCATGAAATTGGCGTGTCACCATGGACGTCTCCGGAGTCACCTAGTGCAG,8660 fluorescence intensity (a.u.)
15,ATTAAACTACTCTAAATTTAAATAATTTTGTAGAGAAAAGCGGAGTCACCTAGTGCAG,8380 fluorescence intensity (a.u.)
16,CATGATGGGCTGAAACTTTTAGGCAACTACGAGAATTGGGCGGAGTCACCTAGTGCAG,10700 fluorescence intensity (a.u.)
17,CATACATATGTAATTTACTTCGATTCGATTAAATTGGCAGCGGAGTCACCTAGTGCAG,7090 fluorescence intensity (a.u.)
18,CATGTAATTGTACAAATCTACACAATTGAAAGGCATCTTCCGGAGTCACCTAGTGCAG,27900 fluorescence intensity (a.u.)
19,ACAGCCAATTATTACATAATTCACATAGAAGAAAACTCACCGGAGTCACCTAGTGCAG,12500 fluorescence intensity (a.u.)
20,TTAGAATGATTTACATACTGGAGTACTAGTAGTAATTCTGCGGAGTCACCTAGTGCAG,19700 fluorescence intensity (a.u.)
21,GGCTAATTCGATCTGACATGGCACCGATGTGGGCGCTTACCGGAGTCACCTAGTGCAG,4170 fluorescence intensity (a.u.)

row,Sequence,binding signal
1,CAACAAATTGGCCCACTATGAAACGGGAATGAGGCCTACGCGGAGTCACCTAGTGCAG,15400 fluorescence intensity (a.u.)
2,TATAATTGAAGGCACCGGATGGATGCAATCAACAAAACAACGGAGTCACCTAGTGCAG,16900 fluorescence intensity (a.u.)
3,TTGCAATGAATGGACAAGATTGATGTACTACAGGACCCAACGGAGTCACCTAGTGCAG,19400 fluorescence intensity (a.u.)
4,AGGCATTGATGGACGAGTCACGGCGTGCCGCACCGGCGTGCGGAGTCACCTAGTGCAG,6840 fluorescence intensity (a.u.)
5,TTTTAATTATTTTCTATGTGAGACTGACATGTGGGTCCCGCGGAGTCACCTAGTGCAG,24700 fluorescence intensity (a.u.)
6,TGCATGTGATTGAAACATCTTTTGATAAATCAATGAAACACGGAGTCACCTAGTGCAG,31000 fluorescence intensity (a.u.)
7,ACTAATTAAACCGGACAGTTGTTGTTGATGATGATATACGCGGAGTCACCTAGTGCAG,30200 fluorescence intensity (a.u.)
8,TATTTAATTGCAACGAATACAATAGTTTAATCGGATTATACGGAGTCACCTAGTGCAG,9360 fluorescence intensity (a.u.)
9,AGACAATATAATTAATAAATATACCATAGAGGAGTTCATGCGGAGTCACCTAGTGCAG,3410 fluorescence intensity (a.u.)
10,CGTAATAATTAAAAGCTTAATAAACGTTTTCACATGTGCGCGGAGTCACCTAGTGCAG,24100 fluorescence intensity (a.u.)
11,ATATAACAGTTTATTCACAAATTATTTTCCGTTTGCAAATCGGAGTCACCTAGTGCAG,6830 fluorescence intensity (a.u.)
12,CCACCGTCGGCCGTTCGATTGATTGGGACGTCGTCCGCGACGGAGTCACCTAGTGCAG,9280 fluorescence intensity (a.u.)
13,CAGATAACAGATTTCATGGGGCTCAGAGATGCCTCCTCTACGGAGTCACCTAGTGCAG,8540 fluorescence intensity (a.u.)
14,CTCGATTGATTTCACTCCGCTTCTTCTTCTTCTTCCTCCTCGGAGTCACCTAGTGCAG,47000 fluorescence intensity (a.u.)
15,TACCCATTAAGTGTTCAATTATATAATGCATGGCTATTAGCGGAGTCACCTAGTGCAG,10900 fluorescence intensity (a.u.)
16,AATTAATAATGATGACCTTCGTCTGTACCGGTTCTTCAAACGGAGTCACCTAGTGCAG,3270 fluorescence intensity (a.u.)
17,TCAAAATTGAAAGTTTGGTTGAAATTGAAACGATTCGACACGGAGTCACCTAGTGCAG,13900 fluorescence intensity (a.u.)
18,ATTCAATCAGAAACTTGTATACGTCCATATGGTATAACTACGGAGTCACCTAGTGCAG,13000 fluorescence intensity (a.u.)
19,AATCAAATTAATCCATTTTCGAAAAGAAATTAGCTAATACCGGAGTCACCTAGTGCAG,9960 fluorescence intensity (a.u.)
20,CGGGATTGGATCGGGCACGGATATTATCGGATACGAATAGCGGAGTCACCTAGTGCAG,7660 fluorescence intensity (a.u.)
21,CTCTGATTTGGATCGTGTCAAACCGACCGACGCACCAAAACGGAGTCACCTAGTGCAG,12000 fluorescence intensity (a.u.)

row,Sequence,binding signal
1,CTGACAACTAATATGTTGAATTAATTATTGTCCTATGGCTCGGAGTCACCTAGTGCAG,9360 fluorescence intensity (a.u.)
2,GGGCTCTGATTATGGGTGCTCCTCCCCAACCAATATAGCACGGAGTCACCTAGTGCAG,4310 fluorescence intensity (a.u.)
3,TTGACTGAAATATGGACGACGTACCAAAGCATCAATGGCACGGAGTCACCTAGTGCAG,7630 fluorescence intensity (a.u.)
4,GATGTGAGATTGACGGCCCACCAGCGGCCGCATCACCAACCGGAGTCACCTAGTGCAG,9410 fluorescence intensity (a.u.)
5,TGACAGATGATTAGGTTGACCTTAGTACAACCAAACCCTCCGGAGTCACCTAGTGCAG,18500 fluorescence intensity (a.u.)
6,GTTTAATTAAAATCCACCAACAATGACAATTTAATAGGTGCGGAGTCACCTAGTGCAG,32300 fluorescence intensity (a.u.)
7,AGTTAATTTTAAGACTTAATTATGAAGTTGATTTTGTGGACGGAGTCACCTAGTGCAG,33900 fluorescence intensity (a.u.)
8,GTAATAACATGTAATTAATTAAATTTTAACTATTACAAATCGGAGTCACCTAGTGCAG,24100 fluorescence intensity (a.u.)
9,ACAGTAGATTGACTATAGTTGAGCACAACGGTAAGGCCGTCGGAGTCACCTAGTGCAG,8160 fluorescence intensity (a.u.)
10,TGCTAGTTAAATTGGGATAAAATAATGGGCCCATTTATTTCGGAGTCACCTAGTGCAG,4520 fluorescence intensity (a.u.)
11,TCCGGATTAACTGATTAAGTGCTTAGTTATTGGTGGTGCTCGGAGTCACCTAGTGCAG,36100 fluorescence intensity (a.u.)
12,CAACCAATCAAATAAGCAACCTGCATTCTCTTCATTCACTCGGAGTCACCTAGTGCAG,11700 fluorescence intensity (a.u.)
13,ATGAATTAGATTTCAGTCACATCTGAGGGTCAAGAGAAGCCGGAGTCACCTAGTGCAG,3950 fluorescence intensity (a.u.)
14,GACGATTGATGAGTATAAGTCAGTTAGGGTTTACGGACGGCGGAGTCACCTAGTGCAG,49500 fluorescence intensity (a.u.)
15,ATTAACATAAAACTCGTCAATGATTAGCTTGTTTGCAGGGCGGAGTCACCTAGTGCAG,21800 fluorescence intensity (a.u.)
16,CCTAATTAATCCATAATTATCAAAAGTTTACTGTAGCATCCGGAGTCACCTAGTGCAG,62800 fluorescence intensity (a.u.)
17,TCCGACATGATTTTAATCTTAGCCACATGCTCCATAAAGACGGAGTCACCTAGTGCAG,6830 fluorescence intensity (a.u.)
18,CATTTAATTATTCATCTTATTCAAACATGTACTCTAAATACGGAGTCACCTAGTGCAG,5260 fluorescence intensity (a.u.)
19,TTAATTCTGAGATTTCTCTGATTGCTTAGTTGTTATATTCCGGAGTCACCTAGTGCAG,8090 fluorescence intensity (a.u.)
20,TCACGTGACTGGATCCCTCTTCTCTCTCGCGCGAGCGTCGCGGAGTCACCTAGTGCAG,6200 fluorescence intensity (a.u.)
21,ACCATTTAATAATTAACTCGCACTCCACTTTTATCCAACACGGAGTCACCTAGTGCAG,19400 fluorescence intensity (a.u.)

row,Sequence,binding signal
1,GAGTGAGAGATTGAATAACCACTAAATGAATATTCTCGAACGGAGTCACCTAGTGCAG,15400 fluorescence intensity (a.u.)
2,GCAAGGAAAATAATTGATCATTGTTCATGAGTGTCGTGTTCGGAGTCACCTAGTGCAG,7320 fluorescence intensity (a.u.)
3,TGTAATATATTGACATGCAATCATTTTGCGCATTCGTGAACGGAGTCACCTAGTGCAG,21400 fluorescence intensity (a.u.)
4,ATTAATTATGCTGTACTATTCTTTGTTTTCAGAAATTGAACGGAGTCACCTAGTGCAG,13600 fluorescence intensity (a.u.)
5,CTAGATGTCCTTAATTTCAACTTGCTCGATCGTGGTCCATCGGAGTCACCTAGTGCAG,3470 fluorescence intensity (a.u.)
6,TGGTCCTTTACATTGCAATTAATTTGTTTGGAATTTATTACGGAGTCACCTAGTGCAG,8240 fluorescence intensity (a.u.)
7,CTTGATCAATTCAATTTTGCACAACGTCCATCTTTGGCATCGGAGTCACCTAGTGCAG,16400 fluorescence intensity (a.u.)
8,ATATATAAATTTCGGGCCAAATTAGATGATGGGTATAGAACGGAGTCACCTAGTGCAG,7130 fluorescence intensity (a.u.)
9,CTAGCGCTGATTTTGTGATGTGATGTCTCTCTTGTCTCCACGGAGTCACCTAGTGCAG,5850 fluorescence intensity (a.u.)
10,TGGGTAAATAGGATTGAAGCAAAATAGGTGAGGAAGCCAACGGAGTCACCTAGTGCAG,3790 fluorescence intensity (a.u.)
11,GATGAAACATATATTGACTGTAACATGTAGATTACATGATCGGAGTCACCTAGTGCAG,6110 fluorescence intensity (a.u.)
12,AGTTATCATTTAATTAATCATATGCTAATGAGCCACCGCACGGAGTCACCTAGTGCAG,13600 fluorescence intensity (a.u.)
13,AATGTTATCAATCATGTAAGTTCCATATATCAAATCAAACCGGAGTCACCTAGTGCAG,16500 fluorescence intensity (a.u.)
14,CAATTTACAATAATTAATTTATTGTTAACTCTCGAGTATTCGGAGTCACCTAGTGCAG,28700 fluorescence intensity (a.u.)
15,TGTTGATTATAATTAAACACAACAAACAGACTCGAAGCAACGGAGTCACCTAGTGCAG,48200 fluorescence intensity (a.u.)
16,TTTAATGGCAAAATTGATGGTGCCAAACCGAGTCAAACTTCGGAGTCACCTAGTGCAG,27700 fluorescence intensity (a.u.)
17,AGATAATTTGTGATTGATGTCATAGTAGTAGAGAAAACCACGGAGTCACCTAGTGCAG,46800 fluorescence intensity (a.u.)
18,ATTAATTAAAGGAGGAAACGCAGGGAAAGACATGGGTATACGGAGTCACCTAGTGCAG,6230 fluorescence intensity (a.u.)
19,GTTTGCTAATTAACGCGGGCAAGATCGAACACGGCCATGTCGGAGTCACCTAGTGCAG,17000 fluorescence intensity (a.u.)
20,TTAAATTATTCTTTTAATAAATAAAACGAACGATACAATGCGGAGTCACCTAGTGCAG,11300 fluorescence intensity (a.u.)
21,AGCCATAATTTATACTAATTAACAATAAAATAGGGTAATTCGGAGTCACCTAGTGCAG,33200 fluorescence intensity (a.u.)
